In all, about 350,000 compounds went through this assay and about 31,000 (8.9%) were called active. Inconclusive results, whose numbers are uncertain, are shown with a selection of clear calls. The call rests on the fitted dose curve; in most records, active means well fitted inhibition curve with a large enough effect; inconclusive means small, poorly fitted or top-dose-only effect; inactive means no such curve, though single readings can be large or run the other way. Where the call is inconclusive, the potency comes from a doubtful curve fit.
target: Histone-lysine N-methyltransferase EHMT2 (Homo sapiens) (UniProt Q96KQ7); assay: qHTS Assay for Inhibitors of Histone Lysine Methyltransferase G9a; details: G9a H3K9 monomethylation, AlphaScreen, 2 h; activity, negative = inhibition: at 59 µM (top of the series) unless noted; further: nearly all actives have a fitted effect of over 75% in size
In short: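 G9a (20 nM) preincubated 15 min RT with compounds, then 500 nM biotinylated H3K9 peptide and 20 uM SAM added; 2 h RT reaction. Monomethyl-H3K9 product detected by AlphaScreen with anti-H3K9me1 antibody, streptavidin donor and anti-rabbit IgG acceptor beads.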
On the % scale 0 is the no-effect control and ±100 the full control effect; potency means the concentration at half of the fitted maximal effect; tags describe the fitted curve by direction and shape.

UniProt Q96KQ7, sequence (Q96KQ7 whole entry, looked up): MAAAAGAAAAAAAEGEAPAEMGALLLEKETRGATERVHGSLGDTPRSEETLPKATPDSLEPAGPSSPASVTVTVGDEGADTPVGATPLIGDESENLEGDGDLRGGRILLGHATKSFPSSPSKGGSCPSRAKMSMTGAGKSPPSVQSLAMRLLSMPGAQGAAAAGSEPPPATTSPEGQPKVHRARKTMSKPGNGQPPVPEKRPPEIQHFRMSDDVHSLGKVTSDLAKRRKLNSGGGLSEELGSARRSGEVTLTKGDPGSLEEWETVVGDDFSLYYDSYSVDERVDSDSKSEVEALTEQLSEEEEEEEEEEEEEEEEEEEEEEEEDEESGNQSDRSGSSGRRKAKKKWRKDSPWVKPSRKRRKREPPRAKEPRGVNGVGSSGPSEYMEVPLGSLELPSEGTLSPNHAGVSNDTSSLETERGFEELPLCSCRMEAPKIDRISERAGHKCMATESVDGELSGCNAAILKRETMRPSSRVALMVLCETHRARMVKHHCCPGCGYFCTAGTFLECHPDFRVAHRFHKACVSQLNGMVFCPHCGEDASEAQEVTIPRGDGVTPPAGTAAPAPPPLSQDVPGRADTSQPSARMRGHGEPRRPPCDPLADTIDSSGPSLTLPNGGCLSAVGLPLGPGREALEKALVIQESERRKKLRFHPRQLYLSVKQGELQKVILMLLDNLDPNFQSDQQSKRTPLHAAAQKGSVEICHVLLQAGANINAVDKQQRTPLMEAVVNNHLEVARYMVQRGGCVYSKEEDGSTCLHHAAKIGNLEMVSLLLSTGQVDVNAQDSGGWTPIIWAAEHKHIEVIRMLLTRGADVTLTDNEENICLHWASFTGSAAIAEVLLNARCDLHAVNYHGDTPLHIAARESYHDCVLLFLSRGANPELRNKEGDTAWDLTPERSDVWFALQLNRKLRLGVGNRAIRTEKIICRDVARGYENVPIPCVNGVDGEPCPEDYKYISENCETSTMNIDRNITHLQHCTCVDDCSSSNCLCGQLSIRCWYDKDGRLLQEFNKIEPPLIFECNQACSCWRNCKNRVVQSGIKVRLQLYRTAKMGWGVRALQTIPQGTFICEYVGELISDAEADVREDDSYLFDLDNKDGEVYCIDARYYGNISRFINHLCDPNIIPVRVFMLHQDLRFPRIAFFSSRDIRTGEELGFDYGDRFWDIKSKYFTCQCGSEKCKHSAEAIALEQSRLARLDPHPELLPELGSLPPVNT

SMILES	Potency	activity, negative = inhibition
CC(C)=C1SC(N2CCN(c3cccc(Cl)c3)CC2)=NC1=O	inconclusive: 8.91 µM [inhibitor, full curve, poor fit]	–
CSC1=N/C(=C\c2cccc(Cl)c2)C(=O)N1N(C)C	inconclusive: 79.4 µM [inhibitor, partial curve]	–
CCOC(=O)c1oc2cc(O)cc(C)c2c(=O)c1-c1cscn1	inconclusive: 31.6 µM [inhibitor, single point]	–
CC(C)OC(=O)CC1C(=O)NCCN1C(=S)NC(=O)CCc1ccccc1 (configuration not stated)	inconclusive: 89.1 µM [inhibitor, single point]	–
COc1ccc(NC(=O)N2CC3(CCN(C(=O)c4ccc(OC)cc4)CC3)C2)cc1	–	inactive: 4.01% [at 12.7 µM]
COc1cc(COc2cc(N)c(Cl)cc2C(=O)CCC2CCN(CCNS(C)(=O)=O)CC2)cc(OC)c1	inconclusive: 17.8 µM [inhibitor, partial curve]	–
O=C1N/C(=C/c2cccn2-c2ccccc2)C(=O)N1Cc1ccccc1F	inconclusive: 1.78 µM [inhibitor, partial curve, poor fit]	–
O=C(c1ccccc1[N+](=O)[O-])N1CCCC(C(=O)N2CCCCCC2)C1 (configuration not stated)	inconclusive: 5.01 µM [inhibitor, full curve, poor fit]	–
CN(C)C(CNC(=S)Nc1ccc(Cl)cc1)c1cccnc1 (configuration not stated)	–	inactive: -4.27% [at 102 µM]
Cn1c(CNC2CCCCC2)c(C#N)c2ccccc21	–	inactive: 14.9% [at 102 µM]
CCOC(=O)c1c(NC(=O)COc2ccc3ccc(=O)oc3c2)sc(C(=O)N(C)C)c1C	–	inactive: -1.66% [at 12.7 µM]
O=C(CSc1nnc(NC(=O)C2CC2)s1)Nc1ccc(F)cc1F	–	inactive: 26.7% [at 102 µM]
Cc1ccc(C(=O)NCc2ccco2)cc1Br	inconclusive: 89.1 µM [inhibitor, single point]	–
Cn1c(N)c(-c2ccccc2)c2ccc([N+](=O)[O-])cc2c1=O	active: 35.5 µM	–
COc1cccc(NC(=O)Nc2cc(C(=O)NC(C)C)ccc2N2CC3CC(C2)c2cccc(=O)n2C3)c1 (configuration not stated)	–	inactive: 22.7%
CCC(=O)Nc1c(C)nn(-c2ccc(C)c(C)c2)c1C	active: 28.2 µM	–
c1cc[n+](CCC[n+]2ccccc2)cc1	active: 11.2 µM	–
Cc1ccc(CSc2nc(-c3ccccc3C)nc3c2Cc2c(CO)cnc(C)c2O3)cc1	–	inactive: 4.6%
Cc1ccsc1/C=N/NC(=O)Cn1cnc2ccccc21	–	inactive: 9.37%
O=C1NCCCC1C(=O)N/N=C/c1ccc([N+](=O)[O-])cc1 (configuration not stated)	–	inactive: -3.57% [at 102 µM]
COC(=O)[C@H](Cc1ccccc1)NC(=O)[C@@H]1C[C@H]1[C@@H](NC(=O)OCc1ccccc1)c1ccccc1	–	inactive: 4.81% [at 102 µM]
CC(C)(C)c1ccc(NC(=O)COC(=O)CCc2nc3ccccc3c(=O)[nH]2)cc1	inconclusive: 89.1 µM [inhibitor, single point]	–
O=S(=O)(Nc1cccc(Cl)c1)c1ccc2oc(=S)[nH]c2c1	active: 25.1 µM	–
Cc1ccc(C(=O)c2oc3ccccc3c2NC(=O)Cc2ccccc2)cc1	–	inactive: 43.3%

SMILES	Potency	activity, negative = inhibition
Cn1cc(S(=O)(=O)N2CCOCC2)cc1C(=O)Nc1cccc(C#N)c1	–	inactive: 12.3%
CC(C)c1ccc(CNc2n[nH]c(-c3ccco3)n2)cc1	–	inactive: -6.23%
COC(=O)c1ccccc1NCC(=O)c1ccc(OC)cc1	inconclusive: 89.1 µM [inhibitor, single point]	–
CCOc1ccccc1N1CCN(Cc2cnc(-c3ccccc3)[nH]2)CC1	inconclusive: 44.7 µM [inhibitor, single point]	–
Cc1c(C(=O)NC2CC2)oc2ccc(S(=O)(=O)N3CCCCCC3)cc12	–	inactive: 21.9%
CCN1CCCC1CNC(=O)CS(=O)(=O)Cc1nc(-c2ccccc2C)oc1C (configuration not stated)	inconclusive: 22.4 µM [inhibitor, single point]	–
CCC(C)NC(=O)c1cnc2n(c1=O)CCS2 (configuration not stated)	inconclusive: 35.5 µM [inhibitor, partial curve, poor fit]	–
Cn1ncc2c(NCc3ccc(F)cc3)ncnc21	–	inactive: -1.39%
COc1cc(C2CC(=O)Oc3c(C(CCN4CCOCC4)c4ccc(N(C)C)cc4)c(OC)cc(OC)c32)cc(OC)c1OC (configuration not stated)	inconclusive: 31.6 µM [inhibitor, single point]	–
O=C(CCl)NCCCCCCCCCNC(=O)CCl	inconclusive: 89.1 µM [inhibitor, single point]	–
COC(=O)c1c(NC(=O)COC(=O)c2ccc(O)cc2)sc2c1CCCCC2	inconclusive: 70.8 µM [inhibitor, single point]	–
CC(=O)Nc1ccc(C(=O)Nc2cccc(S(=O)(=O)N(C)c3ccccc3)c2)cc1	–	inactive: -13.4%
CCN1C(=O)/C(=c2\sc3nc(=O)c(Cc4ccccc4)nn3c2=O)c2ccccc21	active: 25.1 µM	–
O=C(NCc1ccco1)C1CCN(C(=O)c2cc3sccc3n2Cc2ccc(F)cc2)CC1	–	inconclusive: -62.5% [inhibitor]
Cc1c(C(=O)NCc2ccc3c(c2)OCO3)sc2nc(-c3ccccc3)cn12	inconclusive: 39.8 µM [inhibitor, single point]	–
COc1ccc(C2=NS(=O)(=O)N(C)C(C(=O)Nc3ccc4c(c3)OCO4)=C2)cc1	inconclusive: 70.8 µM [inhibitor, single point]	–
CN1CCN(NC(=S)Nc2ccccc2)CC1	inconclusive: 100 µM [inhibitor, single point]	–
COc1cc(C(=O)Oc2c(OC)cc(C(=S)N3CCOCC3)cc2OC)cc(OC)c1OC	inconclusive: 79.4 µM [inhibitor, single point]	–
O=C(NCc1ccncc1)c1ccc(Br)o1	inconclusive: 31.6 µM [inhibitor, single point]	–
Cc1ccc(C(=O)CC2(O)C(=O)N(C)c3ccccc32)o1 (configuration not stated)	active: 50.1 µM	–
O=C(O)c1ccc2c(c1)C(=O)N(c1nccs1)C2=O	inconclusive: 70.8 µM [inhibitor, partial curve]	–
COc1cc(C(C)=O)ccc1COc1ccc(C(=O)OCC(=O)NC2CCS(=O)(=O)C2)cc1OC (configuration not stated)	inconclusive: 89.1 µM [inhibitor, single point]	–
O=C(O)c1cc(-c2ccc(Cl)s2)nc2ccccc12	inconclusive: 44.7 µM [inhibitor, partial curve, poor fit]	–
Cn1c(-c2ccc(C=O)s2)nc2c3ccccc3c3ccccc3c21	inconclusive: 89.1 µM [inhibitor, single point]	–

SMILES	Potency	activity, negative = inhibition
CCCN(C/C=C/I)C1CCc2cccc(O)c2C1 (configuration not stated)	–	inactive: -44.1%
COc1cccc(-n2c(Cn3nc(C(F)F)cc3C(F)F)n[nH]c2=S)c1	active: 8.91 µM	–
COc1ccc(-n2c(SC3CCOC3=O)nc3ccccc32)cc1 (configuration not stated)	inconclusive: 79.4 µM [inhibitor, single point]	–
Cc1cc(C)n(Cc2n[nH]c(=S)n2Cc2ccccc2)n1	active: 15.8 µM	–
COc1cccc(NS(=O)(=O)c2ccc3[nH]cc(C(=O)N4CCCC4)c(=O)c3c2)c1	–	inactive: -11.8%
Cc1c(CCNC(=O)C(C)(C)C)sc2nc(-c3ccc(F)cc3)nn12	inconclusive: 6.31 µM [inhibitor, single point]	–
CCCCCCN1C2=NCCN2c2ccccc21	inconclusive: 1.26 µM [inhibitor, partial curve, poor fit]	–
Cc1cc(NC(=O)c2ccc(NC(=O)CCS(=O)(=O)c3cccs3)cc2)ccc1Br	–	inactive: 5.62%
CC(=O)C1=C(C)NC(SCC(=O)c2ccc(F)cc2)=C(C#N)C1CC(C)C (configuration not stated)	active: 3.55 µM	–
Cc1cc(=O)oc2cc(OCC(=O)OCC(=O)Nc3ccccc3F)ccc12	inconclusive: 50.1 µM [inhibitor, partial curve, poor fit]	–
Cc1ccc(S(=O)(=O)NC(=O)c2cc(C)n(-c3cc(S(=O)(=O)N4CCOCC4)ccc3N3CCCC3)c2C)cc1	inconclusive: 31.6 µM [inhibitor, single point]	–
O=C(C1CCOCC1)N1CCCC(N2CCN(c3cccc(C(F)(F)F)c3)CC2)C1 (configuration not stated)	–	inactive: 82.7% [at 102 µM]
N#C/C(=C(/O)Cc1ccccc1)P(=O)(c1ccccc1)c1ccccc1	inconclusive: 79.4 µM [inhibitor, partial curve, poor fit]	–
O=C(OCC(=O)N1CCc2ccccc21)c1cccnc1	inconclusive: 1.78 µM [inhibitor, partial curve, poor fit]	–
Cc1ccc(-n2c(-c3cc(-c4ccco4)[nH]n3)n[nH]c2=S)c(Br)c1	active: 5.62 µM	–
CCOC(=O)C1CCCCN1Cc1ccc(F)cc1 (configuration not stated)	active: 10 µM	–
COc1cc(OC)c(N(C)C(=O)c2sc3nc4n(c(=O)c3c2C)CCCCC4)cc1Cl	active: 14.1 µM	–
CC1CCCCN1C(=O)CSc1nnc(-c2c[nH]c3ccccc23)o1 (configuration not stated)	inconclusive: 89.1 µM [inhibitor, single point]	–
Cc1ccc(NC(=O)c2sc3nc[nH]c(=O)c3c2C)c(C)c1	inconclusive: 89.1 µM [inhibitor, single point]	–
CCOc1ccccc1N1CCN(C(=O)CCCN2C(=O)c3cccc4cccc(c34)C2=O)CC1	inconclusive: 25.1 µM [inhibitor, single point]	–
CC(=O)Nc1sc(-c2ccccc2)nc1-c1ccccc1	–	inactive: 10.7%
O=C(COC(=O)CCC(=O)c1cccs1)NCc1ccco1	inconclusive: 14.1 µM [inhibitor, partial curve, poor fit]	–
Cc1nn(-c2ccccc2)c2c1C(c1ccc([N+](=O)[O-])cc1)C(C#N)=C(N)O2 (configuration not stated)	active: 50.1 µM	–
Cc1ccc(C2C(C(=O)c3cc4ccccc4o3)=C(O)C(=O)N2CCN2CCOCC2)cc1 (configuration not stated)	active: 39.8 µM	–

Source: PubChem BioAssay AID504332 (National Center for Advancing Translational Sciences (NCATS), 2011)
